Some of the results follow. Single values are uncertain, as repeats are few or missing.
Assays:
Experiment in all cases: cell count relative to DMSO control; melanoma cells; higher = more viable cells
Conditions in all cases: library dose: low library concentration; 72 h
MZ2-MEL = system: MZ2-MEL
MeWo = system: MeWo
RPMI7951 = system: RPMI7951
RVH-421 = system: RVH-421
SkMel28 = system: SkMel28
SkMel2 = system: SkMel2
SkMel30 = system: SkMel30
SkMel5 = system: SkMel5
UACC257 = system: UACC257
UACC62 = system: UACC62
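Note: cell number obtained by counting DAPI-stained nuclei in high-throughput microscope images with image analysis software, screen run in 1,536-well plates.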

SMILES	cell count (MZ2-MEL)	cell count (MeWo)	cell count (RPMI7951)	cell count (RVH-421)	cell count (SkMel28)	cell count (SkMel2)	cell count (SkMel30)	cell count (SkMel5)	cell count (UACC257)	cell count (UACC62)
CCCCCCCCc1ccc(CCC(N)(CO)CO)cc1 [fingolimod] + Cn1cncc1[C@@](N)(c1ccc(Cl)cc1)c1ccc2c(c1)c(-c1cccc(Cl)c1)cc(=O)n2C [tipifarnib] (first compound 2 µM, partner dose 0.01 µM)	101%	95.9%	74.2%	99.5%	90.1%	70.5%	89.8%	101%	78.1%	79.3%
CC(C)(C)c1cnc(CSc2cnc(NC(=O)C3CCNCC3)s2)o1 + NCC(=O)Nc1ccc(-n2nc(C(F)(F)F)cc2-c2ccc3c(ccc4ccccc43)c2)cc1 [OSU03012] (first compound 0.01 µM, partner dose 1 µM)	105%	56.5%	99.5%	121%	81.6%	85.8%	64%	82%	104%	90.5%
Cc1ccc(NC(=O)c2cccc(N(C)C)c2)cc1NC(=O)c1ccc(O)cc1 + CN(C)S(=O)(=O)c1ccc2c(c1)/C(=C/c1cc3c([nH]1)CCCC3)C(=O)N2 [SU6656] (first compound 2 µM, partner dose 0.4 µM)	95.1%	93.9%	103%	92.1%	85.2%	100%	59.2%	105%	101%	101%
Cc1ccc(NC(=O)c2cccc(N(C)C)c2)cc1NC(=O)c1ccc(O)cc1 + CN(NC(=O)CC(=O)NN(C)C(=S)c1ccccc1)C(=S)c1ccccc1 [STA4783] (first compound 2 µM, partner dose 0.006 µM)	75.8%	100%	95.9%	88.1%	91%	96.2%	85.7%	109%	81.1%	80.3%
CCCCCCCCc1ccc(CCC(N)(CO)CO)cc1 [fingolimod] + Cc1cc(N2CCOCC2)cc2[nH]c(-c3c(NC[C@@H](O)c4cccc(Cl)c4)cc[nH]c3=O)nc12 [BMS536924] (first compound 2 µM, partner dose 0.2 µM)	98.2%	90.7%	106%	111%	85.1%	80.3%	91.9%	83.2%	83.4%	85.9%
Cc1ccc(NC(=O)c2cccc(N(C)C)c2)cc1NC(=O)c1ccc(O)cc1 + C[C@@H]1CCN(C(=O)CC#N)C[C@@H]1N(C)c1ncnc2[nH]ccc12 [CP690550] (first compound 2 µM, partner dose 1 µM)	87.4%	103%	70.1%	114%	107%	112%	103%	109%	123%	99.1%
CCCCCCCCc1ccc(CCC(N)(CO)CO)cc1 [fingolimod] + O=C1NC(=O)/C(=C/c2ccc(-c3ccc(F)cc3O)o2)S1 [AS252424] (first compound 2 µM, partner dose 1 µM)	96.8%	97%	83.8%	83.8%	75.3%	87.1%	90.2%	95%	78.7%	89.6%
NC(=O)c1ccc(N(C(N)=O)c2c(F)cccc2F)nc1-c1ccc(F)cc1F + Cc1cc(N2CCOCC2)cc2[nH]c(-c3c(NC[C@@H](O)c4cccc(Cl)c4)cc[nH]c3=O)nc12 [BMS536924] (first compound 0.4 µM, partner dose 0.2 µM)	105%	87%	120%	106%	87.6%	98%	54%	102%	83.1%	77.6%
NC(=O)c1ccc(N(C(N)=O)c2c(F)cccc2F)nc1-c1ccc(F)cc1F + Oc1cc(-c2nc(-c3ccccc3)[nH]c2-c2ccncc2)ccc1Cl [L779450] (first compound 0.4 µM, partner dose 0.2 µM)	82.5%	99.6%	107%	126%	67.7%	92.1%	103%	98.7%	66.4%	67.9%
CCCCCCCCc1ccc(CCC(N)(CO)CO)cc1 [fingolimod] + O=C(Nc1ccccc1)c1cc([N+](=O)[O-])ccc1Cl [GW9662] (first compound 2 µM, partner dose 2 µM)	94.3%	91.3%	107%	83.3%	64.2%	99.6%	110%	103%	121%	66.5%
CC(C)(C)c1cnc(CSc2cnc(NC(=O)C3CCNCC3)s2)o1 + O=C(O)c1ccc(-c2c[nH]c3ncc(-c4ccccc4)cc23)cc1C1CCCC1 [GSK650394] (first compound 0.01 µM, partner dose 0.16 µM)	91.9%	88.3%	103%	81.1%	80.5%	93%	94.8%	106%	95.8%	82.8%
CC(C)(C)c1cnc(CSc2cnc(NC(=O)C3CCNCC3)s2)o1 + OCCn1cc(-c2cnc3nnn(Cc4ccc5ncccc5c4)c3n2)cn1 [PF04217903] (first compound 0.01 µM, partner dose 1 µM)	109%	110%	109%	92.7%	107%	102%	105%	101%	115%	114%
Cc1ccc(NC(=O)c2cccc(N(C)C)c2)cc1NC(=O)c1ccc(O)cc1 + COc1cc2c(Oc3ccc4[nH]c(C)cc4c3F)ncnc2cc1OCCCN1CCCC1 [cediranib] (first compound 2 µM, partner dose 0.4 µM)	90.8%	96.3%	99.5%	79.2%	89.6%	97.9%	85.8%	87.6%	112%	91.7%
NC(=O)c1ccc(N(C(N)=O)c2c(F)cccc2F)nc1-c1ccc(F)cc1F + O=c1cc(-c2cccc3c2Sc2ccccc2S3)oc(N2CCOCC2)c1 [KU55933] (first compound 0.4 µM, partner dose 1 µM)	100%	91.9%	94.4%	94.6%	103%	103%	92.7%	111%	105%	93.7%
NC(=O)c1ccc(N(C(N)=O)c2c(F)cccc2F)nc1-c1ccc(F)cc1F + Cn1cc(/C=C2\C(=O)Nc3cccnc32)c2ccccc21 [GW441756] (first compound 0.4 µM, partner dose 0.4 µM)	99.9%	115%	94.4%	89.8%	76%	102%	102%	87.3%	84.5%	97.7%
NC(=O)c1ccc(N(C(N)=O)c2c(F)cccc2F)nc1-c1ccc(F)cc1F + Cc1cc([N+](=O)[O-])ccc1NS(=O)(=O)c1cc(Cl)ccc1Cl [FH535] (first compound 0.4 µM, partner dose 1 µM)	90%	96.8%	121%	90.5%	71.7%	101%	82.7%	92.6%	86.5%	99.9%
Cc1ccc(NC(=O)c2cccc(N(C)C)c2)cc1NC(=O)c1ccc(O)cc1 + Cn1cncc1[C@@](N)(c1ccc(Cl)cc1)c1ccc2c(c1)c(-c1cccc(Cl)c1)cc(=O)n2C [tipifarnib] (first compound 2 µM, partner dose 0.01 µM)	83.7%	94.1%	85.5%	107%	73.3%	89.2%	82.5%	97.9%	85.1%	82.2%
CCCCCCCCc1ccc(CCC(N)(CO)CO)cc1 [fingolimod] + COC(=O)c1sccc1S(=O)(=O)Nc1ccc(Nc2ccccc2)cc1OC [GSK0660] (first compound 2 µM, partner dose 1 µM)	97.2%	107%	74%	102%	93.5%	91.9%	87%	102%	103%	86.2%
CCCCCCCCc1ccc(CCC(N)(CO)CO)cc1 [fingolimod] + NCC(=O)Nc1ccc(-n2nc(C(F)(F)F)cc2-c2ccc3c(ccc4ccccc43)c2)cc1 [OSU03012] (first compound 2 µM, partner dose 1 µM)	83%	49.4%	86.9%	99.9%	72%	56.4%	32.9%	76.6%	81.5%	72.5%
NC(=O)c1ccc(N(C(N)=O)c2c(F)cccc2F)nc1-c1ccc(F)cc1F + CCCCCCCCCCCC1=C(O)C(=O)C=C(O)C1=O [Embelin] (first compound 0.4 µM, partner dose 1.2 µM)	108%	118%	98.3%	124%	85.3%	101%	82.4%	101%	76.1%	99.3%
CCCCCCCCc1ccc(CCC(N)(CO)CO)cc1 [fingolimod] + O=C(O)c1ccc(-c2c[nH]c3ncc(-c4ccccc4)cc23)cc1C1CCCC1 [GSK650394] (first compound 2 µM, partner dose 0.16 µM)	97.5%	105%	110%	129%	95.7%	93.1%	98.9%	90.5%	82.3%	86.3%
NC(=O)c1ccc(N(C(N)=O)c2c(F)cccc2F)nc1-c1ccc(F)cc1F + O=C(O)c1ccc(-c2c[nH]c3ncc(-c4ccccc4)cc23)cc1C1CCCC1 [GSK650394] (first compound 0.4 µM, partner dose 0.16 µM)	92.3%	93.4%	96.3%	77.9%	88.3%	101%	99.5%	93.5%	84.2%	101%
NC(=O)c1ccc(N(C(N)=O)c2c(F)cccc2F)nc1-c1ccc(F)cc1F + NC(=O)Nc1cc(-c2cccc(F)c2)sc1C(=O)N[C@H]1CCCNC1 [AZD7762] (first compound 0.4 µM, partner dose 0.02 µM)	113%	98.3%	86.5%	141%	91.1%	111%	102%	99.8%	124%	92.9%

From the supplement of paper PMC4604168 (melanoma cell lines)
